# According to PMC4336329 (PLoS ONE, 2015):
# Screen size: about 310,000 compounds; about 2,200 (0.71%) showed an effect of 50% or more. The effect is printed as a negative number. Some of the results follow.
# Biological target: human ether-à-go-go-related gene (hERG) potassium channel (human, UniProt Q12809)
# Assay: primary screen, population patch clamp on CHO cells stably expressing hERG
# Chain of human ether-à-go-go-related gene (hERG) potassium channel (Q12809 whole entry, looked up): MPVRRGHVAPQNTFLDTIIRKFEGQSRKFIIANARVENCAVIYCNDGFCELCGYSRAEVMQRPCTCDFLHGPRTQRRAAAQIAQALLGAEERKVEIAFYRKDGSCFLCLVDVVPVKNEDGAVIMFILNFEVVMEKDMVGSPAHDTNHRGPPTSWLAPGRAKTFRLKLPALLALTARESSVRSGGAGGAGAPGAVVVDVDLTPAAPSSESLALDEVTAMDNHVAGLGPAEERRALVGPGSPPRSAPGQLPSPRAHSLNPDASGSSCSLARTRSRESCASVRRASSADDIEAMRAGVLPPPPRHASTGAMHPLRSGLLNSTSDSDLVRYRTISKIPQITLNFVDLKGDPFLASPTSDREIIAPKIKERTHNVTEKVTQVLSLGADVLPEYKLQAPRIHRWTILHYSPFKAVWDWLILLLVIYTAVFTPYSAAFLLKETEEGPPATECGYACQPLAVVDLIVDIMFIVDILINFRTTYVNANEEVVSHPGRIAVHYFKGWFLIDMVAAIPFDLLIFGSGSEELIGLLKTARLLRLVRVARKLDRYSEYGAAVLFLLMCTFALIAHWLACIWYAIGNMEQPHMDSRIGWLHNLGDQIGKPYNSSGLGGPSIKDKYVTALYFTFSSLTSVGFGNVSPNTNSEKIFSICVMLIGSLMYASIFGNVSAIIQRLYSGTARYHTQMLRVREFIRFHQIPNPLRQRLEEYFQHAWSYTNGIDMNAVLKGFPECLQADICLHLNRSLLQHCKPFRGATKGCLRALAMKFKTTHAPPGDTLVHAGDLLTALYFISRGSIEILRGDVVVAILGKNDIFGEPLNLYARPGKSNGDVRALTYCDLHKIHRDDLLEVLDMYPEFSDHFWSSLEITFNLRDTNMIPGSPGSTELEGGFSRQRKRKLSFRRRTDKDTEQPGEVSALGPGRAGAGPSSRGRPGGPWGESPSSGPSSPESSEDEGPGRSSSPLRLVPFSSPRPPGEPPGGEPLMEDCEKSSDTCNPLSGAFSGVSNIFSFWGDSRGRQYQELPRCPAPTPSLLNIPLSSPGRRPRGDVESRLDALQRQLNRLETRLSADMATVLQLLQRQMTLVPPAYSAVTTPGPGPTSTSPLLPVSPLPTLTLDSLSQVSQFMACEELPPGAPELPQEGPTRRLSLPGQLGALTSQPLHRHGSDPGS
row,SMILES,"hERG current change (%, negative = inhibition) at 1uM [%]"
1,CCCCN1C(=O)C(NC(C)=O)c2ccccc21 (stereo not drawn),10.4
2,CCCCN(C(=O)CSc1n[nH]c(-c2ccc(C)cc2)n1)c1c(N)n(CCCC)c(=O)[nH]c1=O,7.86
3,COc1ccc(-c2c(C)nn3c(N4CCC5(CC4)OCCO5)cc(C)nc23)cc1OC,5.14
4,Cc1ccc(CN(C)C(=O)CN2C(=O)NC3(CCCc4ccccc43)C2=O)c(C)c1 (stereo not drawn),2.02
5,N#C/C(=C(/O)CN1CCCCC1)c1nc(-c2ccc(Cl)cc2)cs1,2.77
6,Cc1cc(Oc2ccc(OCC(N)=O)nn2)nc(Cl)n1,5.91
7,O=C(Nc1ccc(F)cc1)N1CCN(c2ncccn2)CC1,9.35
8,O=C(OCC(=O)c1ccc([N+](=O)[O-])cc1)/C(=C\c1ccc(Cl)cc1)NC(=O)c1ccccc1,-6.52
9,COc1ccc(C(=O)NCCc2nnc3ccc(SCC(=O)Nc4ccccc4F)nn23)cc1,11.4
10,CC(C)S(=O)(=O)c1nsc2nc(=O)c(/C=C3\C=Nc4ccccc43)c(N)n12,10.3
11,CC(NC(=O)C(C)(C)C)C(c1cccs1)N1CCOCC1 (stereo not drawn),3.09
12,COC(=O)c1ccc(/C=N/Nc2nc3ccccc3[nH]2)cc1,3.9
13,CC(=O)c1cc(C(=O)N2CCCC(CCC(=O)N(C)CCc3ccccn3)C2)cs1 (stereo not drawn),9.12
14,CCC(C)[C@H](NC(=O)N1CCn2c1nc1ccccc12)C(=O)NCc1ccc(OC)cc1 (stereo partly drawn),13.6
15,Cn1c(=O)c2c(nc(SCC(=O)NCc3ccc4c(c3)OCO4)n2Cc2ccc(F)cc2)n(C)c1=O,-15
16,Cc1sc2ncnc(Nc3ccc(O)cc3)c2c1C,4.65
17,COc1ccc([N+](=O)[O-])cc1NC(=O)C1(c2ccc(OC)c(OC)c2)CCOCC1,5.21
18,Cc1ccc(N(CCCCN2C(=O)c3ccccc3C2=O)C(=O)c2cccs2)cc1,-11
19,O=C(NCc1ccco1)c1cc(-c2ccco2)on1,13.8
20,COC(=O)c1ccc2c(=O)n(CCN3CCOCC3)c(SCC(=O)Nc3cccc(OC)c3)nc2c1,5.05
21,O=C(Cc1c[nH]c2ccccc12)NCc1ccco1,5.99
22,Cc1cc(C)n(-c2ccc(C(=O)N3CCN(S(=O)(=O)c4ccc(C(C)C)cc4)CC3)cc2)n1,-10.6

row,SMILES,"hERG current change (%, negative = inhibition) at 1uM [%]"
1,O=C(Oc1cccc(-n2cnnn2)c1)c1sc2ccccc2c1Cl,15.9
2,CSCC[C@H](NC(=O)COc1ccc(Cl)cc1)c1nc2ccccc2[nH]1,-3.74
3,Cn1c(NCC2CCCO2)nc2c1c(=O)n(Cc1ccccc1)c(=O)n2C (stereo not drawn),8.7
4,COc1cccc(NC(=S)N2CCn3cccc3C2c2cccnc2)c1 (stereo not drawn),1.43
5,C#CC(=O)N(c1cccc(OC)c1)C(C(=O)NC1CCCC1)c1cccs1 (stereo not drawn),-1.47
6,Cc1oc(-c2ccc(Cl)cc2)nc1CN1CCC(C(=O)NCc2cccnc2)CC1,-29.8
7,COc1ccc(N=C2CCS(=O)(=O)c3sccc32)cc1,14.8
8,COc1cccc(C(=O)NCCS(=O)(=O)N(C)Cc2ccccc2)c1,-0.609
9,Cc1ccc(S(=O)(=O)N2[C@@H](c3ccc(Cl)cc3)C(C(=O)O)=CC[C@H]2c2ccc(Cl)cc2)cc1,6.49
10,Cn1c(SCC(=O)Nc2ccc(F)cc2)nnc1C1CC1,14.2
11,O=C(NCCNc1ccc([N+](=O)[O-])cc1C(F)(F)F)c1ccccc1F,4.97
12,CC(=O)N1CCN(CCN2C(C)=CC(=C(C#N)C#N)C=C2C)CC1,8.09
13,Cc1cnc(=O)[nH]c1SCC(=O)c1ccc(F)cc1,11.2
14,CCOC(=O)C1(Cc2ccccc2C(F)(F)F)CCN(C2CCSC2)CC1 (stereo not drawn),-2.49
15,CC(=O)c1c(C)[nH]c(C(=O)NCc2ccccc2)c1C,6.97
16,O=C(Cc1c(F)cccc1Cl)NCCN1CCOCC1,9.84
17,CC1CC(Nc2ccccc2N)=CC(=O)O1 (stereo not drawn),10
18,Cc1nnc(SCC(=O)N(C)C2CCCCC2)n1C,8.19
19,CSc1ncccc1C(=O)NCCc1ccc(Cl)cc1,20.6
20,CCCCC(=O)Nc1ccc(Br)cc1C(=O)O,1.43
21,COc1ccc(N(CCC#N)S(=O)(=O)c2ccc(Cl)cc2)cc1,6.94
22,CCC(C)NC(=O)C(Sc1ccccc1)c1ccccc1 (stereo not drawn),12.4

row,SMILES,"hERG current change (%, negative = inhibition) at 1uM [%]"
1,Cc1cccc(NC(=O)CS(=O)(=O)c2cn(CC(=O)N3CCOCC3)c3ccccc23)c1,5.2
2,CC1(C2CC2)NC(=O)N(CC(=O)N2CCN(c3ccccc3)CC2)C1=O (stereo not drawn),7
3,CC(C)C(CO)N1CCN(Cc2ccccc2)CCC1=O (stereo not drawn),5.63
4,Oc1ccc(C(=S)N2CCCCC2)cc1,13
5,CC(C)(C)c1ccc(/C=N/OCC(=O)NCc2ccccc2)cc1,-0.192
6,CCN1C(=O)C(=O)N(CC(=O)Nc2cc(C)ccc2C)C1=O,2.79
7,O=S(=O)(N/N=C\c1ccc2c(c1)OCO2)c1ccc(Cl)cc1,-14.6
8,COc1ccc(S(=O)(=O)N2CCCCCC2)cc1C(=O)N(C)Cc1ccco1,-1.44
9,CCC(=NCc1ccco1)c1c(O)n(C2CCCCC2)c(=O)[nH]c1=O,6.29
10,COc1ccc(-c2nn(CCC#N)cc2C(=O)Nc2cccc(C(=O)O)c2)cc1[N+](=O)[O-],12.4
11,Cc1ccc(NC(=O)c2ccc(S(=O)(=O)N3CCCCC3)cc2)nc1,4.76
12,O=C(NC(=S)Nc1ccccn1)c1cc(-c2ccccc2)nc2ccccc12,16.5
13,C[N+]12CCC(CC1)C(C(O)(c1ccccc1)c1cccs1)C2.[I-] (stereo not drawn),2.17
14,Cc1ccc2nsnc2c1NC(=O)Cc1ccc(Cl)cc1,16.7
15,COC(=O)c1c(C)[nH]c(C(=O)C(C)OC(=O)C2CC(=O)N(CCc3ccccc3)C2)c1C (stereo not drawn),9.56
16,CN(C)CCNC(=O)/C(=C/c1cccc([N+](=O)[O-])c1)NC(=O)c1ccccc1,-28.6
17,C/C(=N\NC(=O)c1cc(-c2cccnc2)nc2ccccc12)c1ccc(O)cc1O,1.88
18,Cn1nnnc1SCc1ccccc1[N+](=O)[O-],5.51
19,CN(C)S(=O)(=O)c1ccc(C(=O)OCc2ccc([N+](=O)[O-])cc2)cc1,22.1
20,O=C(Cc1ccc(Br)cc1)Nc1cccc(Cl)c1,4.23
21,COc1cc(/C=C/C(=O)OCC(=O)N2CCC(Cc3ccccc3)CC2)ccc1O,12.5
22,Cc1ccc(CC2SC(=O)NC2=O)cc1Cl (stereo not drawn),11.2

row,SMILES,"hERG current change (%, negative = inhibition) at 1uM [%]"
1,O=C(Nc1ccc(SC(F)F)cc1)c1ccc2c(=O)n3c(nc2c1)CCC3,-2.51
2,CS(=O)(=O)N(CC(=O)NCCSCc1cccc(Cl)c1)c1ccc(F)cc1,8.25
3,COc1ccccc1N1CCN(C(=O)CCc2ccc(S(=O)(=O)NC(C)C)cc2)CC1,-2.65
4,CCN(c1ccccc1)S(=O)(=O)c1ccc(Cl)c(NC(=O)COC(=O)c2cccc(OC)c2O)c1,5.6
5,CC1(C)CC(=O)C(CC2=C(O)CC(C)(C)CC2=O)=C(O)C1,0.0164
6,Cc1ccc(CNC(=O)CCC(=O)N2CC(C)Oc3ccc(Cl)cc32)cc1 (stereo not drawn),-28.1
7,COc1ccc(NC(=O)c2c(NC(=O)CNCc3ccco3)sc3c2CCC3)c(OC)c1,9.6
8,CCCCN(CC)CCNC(=O)c1cn(C)c(=O)c2c1c1ccccc1n2C,10.3
9,CS(=O)c1ccccc1COC(=O)Nc1cccc(Cl)c1 (stereo not drawn),-14.7
10,CCN(Cc1ccccc1)C(=O)CCc1nnc(CCCc2ccccc2)o1,12.2
11,CCc1ccc(NC(=O)[C@H](Cc2c[nH]c3ccccc23)NC(=O)[C@@H]2Cc3ccccc3CN2)cc1,6.43
12,CC(C)(C)c1ccc(S(=O)(=O)Nc2ccc(Cc3ccncc3)cc2)cc1,0.464
13,CCC(C)NC(=O)c1ccccc1NC(=O)/C(=C/c1ccc(OC)cc1)c1ccccc1 (stereo not drawn),4.34
14,COC(=O)c1cn(-c2ccccc2)nc1-c1ccc(OC)cc1,12.2
15,Cc1cccc(C)c1NC(=O)CNC(=O)c1ccncc1,10.5
16,CCCOc1ccc(Cn2c(O)cc(=O)[nH]c2=O)cc1,8.04
17,COc1cc(NS(=O)(=O)c2ccc(NC(=S)NC(=O)C(C)(C)C)cc2)nc(OC)n1,-2.53
18,CCOc1ccc(N2C(=O)NC(Cc3c[nH]c4ccccc34)C2=O)cc1 (stereo not drawn),1.64
19,Cc1ccnc(NC(=O)c2ccc(N3C(=O)CCC3=O)cc2)c1,12.7
20,CCOC(=O)N1CCC(Nc2ccc3nnc(-c4ccccc4)n3n2)CC1,-29.9
21,CN(C)CCN(C(=O)c1ccccc1Cl)c1nc2c(Cl)cccc2s1.Cl,25.5
